Laboratory results from the supplement of paper PMC4166925.
± gives the standard deviation of the averaged measurements. The full ranking holds about 33,000 sequences; the median of “E-score (dimensionless, -0.5 to 0.5)” is about -0.046, and the highest 2% start at about 0.36. This is one part of the list.

Each sequence was assayed on T1, SpTbr T-box DNA-binding domain (GST fusion) (assay: PBM E-score of 8-mer (E-score (dimensionless, -0.5 to 0.5)); Tbr is Tbrain of the sea star Patiria miniata (Pm) or the sea urchin Strongylocentrotus purpuratus (Sp); higher = stronger binding preference; most listed sequences are background and not binding sites). Conditions: the construct has about 5 more residues each side.
T1 sequence: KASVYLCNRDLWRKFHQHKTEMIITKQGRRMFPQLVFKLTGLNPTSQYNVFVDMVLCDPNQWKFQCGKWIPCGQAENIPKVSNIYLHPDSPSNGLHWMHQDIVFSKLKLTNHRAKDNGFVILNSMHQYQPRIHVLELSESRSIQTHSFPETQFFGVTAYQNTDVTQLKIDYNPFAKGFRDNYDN
Description: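 Universal protein-binding microarray (Agilent AMADID 016060, 60-bp probes with a 35-bp variable region) incubated with 200 nM GST-fused Strongylocentrotus purpuratus Tbr T-box DNA-binding domain (residues 362-554) in PBS pH 7.5. Scored for every ungapped 8-mer (given with its reverse complement) as E-score (range -0.5 to 0.5; >0.45 counts as bound) and Z-score of median probe intensity. Two replicate arrays (datasets 1 and 2).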
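Also: protein at 200 nM in PBS on universal double-stranded arrays.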

Sequence | PBM E-score of 8-mer
AATAGGAA | -0.171 ± 0.049
TGCCGAAA | 0.0892 ± 0.013
CCGCTATA | 0.102 ± 0.055
GTAGCCAA | -0.0866 ± 0.0081
CCAGAGAG | -0.184 ± 0.12
CGCTGGCC | -0.032 ± 0.027
AGTATAAG | -0.15 ± 0.049
CGACAGTC | 0.184 ± 0.048
CGAGAGTA | 0.0304 ± 0.018
AGCAGCTG | 0.148 ± 0.0082
AAACCGTT | 0.025 ± 0.032
GTAGGCGA | 0.117 ± 0.029
CAGTGTGC | 0.106 ± 0.0063
ATAAGATA | -0.122 ± 0.037
AGGATGGC | -0.0145 ± 0.041
ACACTCCG | 0.367 ± 0.023
CAGAGTGA | -0.0823 ± 0.057
AACTCGAT | 0.0475 ± 0.082
CTCATTGA | 0.032 ± 0.034
AAGACCAC | -0.0362 ± 0.12
CGATAACG | 0.201 ± 0.0052
ACCAAAAT | -0.0134 ± 0.0022
CATGCATC | -0.119 ± 0.13
ACCCCCCC | -0.226 ± 0.0096

Sequence | PBM E-score of 8-mer
ACCCCGGC | 0.0161 ± 0.028
CTCAAGTA | 0.0665 ± 0.065
AGGCCAGC | -0.0726 ± 0.023
GATAACGC | 0.288 ± 0.011
CAGATACA | 0.0493 ± 0.047
TAGGTACA | -0.3214 ± 0.0011
CAACATCA | 0.0114 ± 0.034
CCTGCGGA | -0.0459 ± 0.096
CGCTGCCA | 0.195 ± 0.025
GTCTTTGA | -0.143 ± 0.029
CCACGATC | -0.062 ± 0.036
ACGTTTAT | -0.0919 ± 0.051
AGCAGACG | -0.0688 ± 0.033
GATGAGGA | -0.159 ± 0.0045
GGATTGAA | -0.143 ± 0.059
AGGCGTTC | 0.125 ± 0.024
ATTCGAGC | -0.0775 ± 0.049
TATAGACA | 0.00469 ± 0.045
GTATGAAA | -0.216 ± 0.12
GGGGGTAA | -0.19 ± 0.0068
AAGTTAGT | -0.13 ± 0.0072
ACAGGGTA | -0.155 ± 0.051
GGGGGGGA | -0.275 ± 0.03
AAGTAACG | 0.0593 ± 0.0058

Sequence | PBM E-score of 8-mer
TCACATGA | 0.14 ± 0.0023
GAATACGA | -0.0226 ± 0.042
GGGGACAA | -0.147 ± 0.094
AACTACTG | -0.12 ± 0.084
CACGAGTA | -0.0718 ± 0.016
ATGGATAG | -0.183 ± 0.029
AGTTGCGC | 0.13 ± 0.063
ATAGACAA | -0.2 ± 0.036
CCCCTGCC | -0.311 ± 0.019
AACAGGGT | -0.0954 ± 0.061
AGTTTAAT | -0.0467 ± 0.1
TCTTGGCA | 0.0168 ± 0.0054
AATCTAAG | -0.234 ± 0.034
AAACCGCT | -0.032 ± 0.035
ACATGGTC | -0.202 ± 0.025
CCTGAGCC | -0.22 ± 0.02
CCAACATC | 0.0244 ± 0.019
AAACGAGC | -0.112 ± 0.052
ACACGTCT | 0.342 ± 0.0038
ATTCACCA | 0.052 ± 0.022
CTTGTACA | -0.0795 ± 0.0086
CTACACCA | 0.116 ± 0.0061
ACGTGTGG | 0.416 ± 0.00045
CTCGGCAC | 0.229 ± 0.012

Sequence | PBM E-score of 8-mer
CGTTCTGC | -0.0627 ± 0.041
ACCAAGCC | -0.13 ± 0.029
AGTTGTGG | 0.164 ± 0.06
AAGGCTAC | -0.147 ± 0.074
CCCAGAAA | -0.216 ± 0.045
GGGCAAAC | -0.205 ± 0.043
TAGCCGGA | -0.13 ± 0.03
AACGACAG | -0.00899 ± 0.00023
GACGCCAA | 0.229 ± 0.018
GAAGAGTA | -0.126 ± 0.005
CCAAGCTA | -0.14 ± 0.026
AAATAGAG | -0.0872 ± 0.04
CGGGAACA | 0.128 ± 0.014
CCGATTTA | -0.187 ± 0.07
ACCTAAGA | -0.115 ± 0.051
ACAAATCT | 0.0327 ± 0.015
ATACCATG | -0.114 ± 0.05
AGGAATAA | -0.191 ± 0.054
ACCCTGCC | 0.116 ± 0.088
GGCTCGCA | 0.137 ± 0.038
ATTGGAAG | -0.328 ± 0.053
GCACAATA | -0.0327 ± 0.036
